Hit rate of the full screen: of about 150,000 compounds, about 540 (0.36%) showed an effect of 50% or more. Some of the results follow.

The test relates to Plasmodium falciparum. The test is described as follows: Primary screen in NF54 nanoGlo assay, in single point, at 2uM, 72h; a lower Z score goes with more inhibition. The class given is functional, Erythrocyte. The conditions noted are these: timepoint 72 hour.
On to `CCC[C@H](C)CN1CCCn2nc(CNC(=O)C3CCC3)cc2C1`, for which the “% Inhibition” value is on record as -13% and the Z score was determined as 2.22.

As for `Cc1cccc(F)c1S(=O)(=O)NCC(F)(F)CO`, the “% Inhibition” value is -15% and the Z score is on record as 2.81.

As to `CC(C)(C)c1ccc([C@@H](CC(=O)NCc2ccc(F)cc2)c2c[nH]c3ccccc23)cc1`, the “% Inhibition” value is recorded as 6% and the Z score is recorded as -0.76.

`Cc1ccccc1OCC(=O)NCc1ccc(-c2ccoc2)o1`: the “% Inhibition” value is listed as -15% and the Z score amounted to 3.09.

Consider `Cc1cc(C)c(-c2c(-c3ccccc3)ncn2CCn2ccnc2)cc1C`, for which the “% Inhibition” value is -7% and the Z score came out at 0.87.

For the molecule `NS(=O)(=O)c1ccc(Cn2cnc(-c3ccccc3)c2-c2ccco2)cc1`, the “% Inhibition” value was found to be 0% and the Z score came to 0.07.

With `CC(=O)N1CCN(c2c(C)cnc3c2c(=O)n(CC(=O)Nc2cc(C)ccc2C)c(=O)n3C)CC1`, the “% Inhibition” value was 0% and the Z score is recorded as -0.06.

Take `Cc1ccc(C)c(S(=O)(=O)NCCC(=O)N2CCNC(=O)C2)c1`: the “% Inhibition” value is on record as 2% and the Z score is -0.24.

Take `O=C(NC1CCCCC1)N1Cc2nc[nH]c2C[C@H]1c1nc(-c2ccc3c(c2)OCO3)no1`: the “% Inhibition” value came out at 17% and the Z score is on record as -2.7.

Regarding `Cc1cccc(Oc2nc(N3CCCCC3)nc3c2CN(S(=O)(=O)c2ccc(F)cc2)CC3)c1`, the “% Inhibition” value is reported as -6% and the Z score came to 0.94.

Turning to `Cc1nnsc1C(=O)N1C[C@@H]2CC[C@H]1CN(S(=O)(=O)N(C)C)C2`, the “% Inhibition” value is 28% and the Z score is on record as -2.81.

With `O=C(ON1C(=O)CCC1=O)c1ccc2noc(-c3ccccc3)c2c1`, the “% Inhibition” value is -14% and the Z score was 1.71.

With `COc1ccc(NC(=O)CN2CCN(Cc3ccccc3C)S2(=O)=O)cc1Cl`, the “% Inhibition” value is recorded as -1% and the Z score came to 0.23.

On to `CCc1ccccc1NC(=O)N1CCN(c2ccc(-c3noc(C4CCC4)n3)cc2)CC1`, for which the “% Inhibition” value is -14% and the Z score is given as 2.49.

Take `Fc1ccc(OCc2nccc(-c3ccc4c(c3)OCO4)n2)cc1`: the “% Inhibition” value is given as 32% and the Z score is -0.54.

Regarding `COc1cccc(C(=O)N2CCN(c3nc4ncccc4o3)CC2)c1`, the “% Inhibition” value was -3% and the Z score was determined as 0.33.

Consider `FC(F)[C@H](NCc1nnc(C2CC2)s1)c1ccccc1`, for which the “% Inhibition” value stood at 2% and the Z score was -0.43.

With `COC1C(C)C(NS(=O)(=O)CCCN2CCOCC2)C1(C)C` (centres undefined), the “% Inhibition” value turned out to be 3% and the Z score is recorded as -0.65.

Take `CCc1nnc(NCc2ccc(C(=O)NC3CC3)cc2)c(C#N)c1CC`: the “% Inhibition” value was -12% and the Z score was found to be 1.24.

Consider `CCOc1cc(-c2nccn2-c2cncc(C(=O)O)c2)ccc1OC`, for which the “% Inhibition” value was -5% and the Z score is recorded as 0.59.

Turning to `Cc1nsc(N[C@@H](C)c2ncccc2F)n1`, the “% Inhibition” value came out at 33% and the Z score was -3.79.

Take `CC(C)[C@H](NC(=O)c1ccc(Cl)cc1Br)C(=O)O`: the “% Inhibition” value was 12% and the Z score was -1.27.

For `CNc1nc(N2CCn3nc(CNC(=O)C4CCC4)cc3C2)ncc1F`, the “% Inhibition” value is given as -16% and the Z score was determined as 2.78.

On to `CN1CCN(CCC(=O)NCc2cccc(Cl)c2)C[C@H]1c1ccccc1`, for which the “% Inhibition” value is given as -16% and the Z score turned out to be 2.01.

As to `O=C(NCCOCCn1ccnc1)c1cncc(Br)c1`, the “% Inhibition” value is -10% and the Z score came to 1.13.

For `CCCN1C[C@@H](NS(=O)(=O)c2cc(-n3cccn3)ccc2OC)CC1=O`, the “% Inhibition” value is given as 6% and the Z score is on record as -1.21.

For `Cc1cccc2ncc(C(=O)N[C@@]34COC[C@@H]3C4)n12`, the “% Inhibition” value was -12% and the Z score worked out at 1.31.

With `O=C(C[C@H]1COCCN1C(=O)c1n[nH]c2ccccc12)c1ccco1`, the “% Inhibition” value is given as -14% and the Z score amounted to 1.75.

In the case of `COc1ccc(-c2nnc(-c3cccs3)c3conc23)cc1`, the “% Inhibition” value is given as -41% and the Z score worked out at 4.75.

As for `CCN(CC)[C@H]1CCN(C2CCN(c3ccc(-n4ccnc4)cc3)CC2)C1`, the “% Inhibition” value is listed as 9% and the Z score is -1.14.

For `CCOC[C@H]1CCN(C(=O)c2nccc3[nH]ccc23)C1`, the “% Inhibition” value worked out at 2% and the Z score was -0.32.

As for `CCC(c1cccs1)N1C(=O)[C@H]2CN(C(=O)NC)C[C@H]2C1=O` (some centres undefined), the “% Inhibition” value is listed as -12% and the Z score worked out at 1.46.

For the molecule `CCc1nnsc1C(=O)Nc1cc(C(F)(F)F)c[nH]c1=O`, the “% Inhibition” value is reported as -3% and the Z score was 0.35.

Turning to `CC(C)n1ccnc1CNc1cccc(C(=O)N2CCC[C@H](O)C2)c1`, the “% Inhibition” value was 10% and the Z score is listed as -1.62.

For the molecule `CCCS(=O)(=O)Nc1cc(-c2cccs2)n[nH]1`, the “% Inhibition” value is -17% and the Z score came to 3.09.

On to `CC(C)CCN1C(=O)CC[C@@H]2CN(C(=O)c3ccc(=O)[nH]n3)CC[C@@H]21`, for which the “% Inhibition” value is recorded as -11% and the Z score is given as 1.84.

As for `Cc1nc2ccc(NC(=O)Nc3ccc(F)cc3F)cc2s1`, the “% Inhibition” value was -9% and the Z score is on record as 1.17.

Turning to `O=C(c1nn[nH]c1Nc1ccccc1F)N1CCN(c2ccccc2)CC1`, the “% Inhibition” value is -2% and the Z score was found to be 0.23.

Regarding `O=C(CCC1CCN(C(=O)C[C@H]2CCC(=O)N2)CC1)Nc1ccc2c(c1)OCCO2`, the “% Inhibition” value is 10% and the Z score was -1.25.

Take `O=C(c1cc(C2CC2)nc2ccccc12)N1CCN(c2ncccn2)CC1`: the “% Inhibition” value is listed as -8% and the Z score amounted to 1.27.

As to `Cc1ccccc1NC(=O)[C@H]1CCn2c(nc3ccccc32)C1`, the “% Inhibition” value is listed as -6% and the Z score worked out at 0.57.

For the molecule `CC(C)(C)[C@H](CN1CCCC1)NC(=O)c1ccc(-c2cc(C#N)ccn2)cc1`, the “% Inhibition” value is recorded as -7% and the Z score was found to be 1.25.

The term % Inhibition denotes the change of the read-out against control, counted positive when it falls.

The values above are taken from ChEMBL document CHEMBL4888484, “Replenishing the malaria drug discovery pipeline: Screening and hit evaluation of the MMV Hit Generation Library 1 (HGL1) against asexual blood stage Plasmodium falciparum ,using a nano luciferase reporter read-out” (2022).
